Laboratory results taken from PubChem BioAssay AID1963576 (National Center for Advancing Translational Sciences (NCATS), 2024).
Among all 46,000 compounds or so, about 60 (0.1%) were called active. Not shown: some 3% with an inconclusive outcome. Calls come from the whole dose curve; as a rule, active = well fitted inhibition curve with a large enough effect; inconclusive = small, poorly fitted or top-dose-only effect; inactive = no such curve, though single readings can be large or run the other way. The list shows a part of the results.

Experiment: Primary qHTS assay for Inhibitors of ovarian cancer metastasis using an organotypic tumor microenvironment (TME) model.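 For activity change, negative = inhibition: plate controls were DMSO wells for no effect and tomatine positive control wells for full effect.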 Note: nearly all actives have a fitted effect of over 65% in size.
Conditions: SKOV3ip1-GFP adhesion/invasion on 3D omental model, fluorescence; series mostly up to 45.8 µM; activity change, negative = inhibition: at the top concentration
Method in brief: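 qHTS, 4-pt dose (0.36-46 umol/L); SKOV3ip1-GFP, 1,200 cells/well, no FBS; primary omental fibroblast/mesothelial co-culture 48 h pre-grown; 2 h RT + 16 h 37 C; PBS wash, 4% PFA; GFP count 488/509 nm.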

Compound	activity change, negative = inhibition	outcome
COc1ccc(-n2cnc3cc(C(=O)NC4CCCCCC4)ccc32)cc1	inactive: -4.71%	–
Cc1ccc(C(=O)c2oc3ccccc3c2NC(=O)Cc2coc3ccc(C)cc23)cc1	inactive: 0.841%	–
O=C(O)c1ccc2nc(-c3cc4cc(Cl)ccc4oc3=O)[nH]c2c1	inactive: 5.74%	–
O=C(CCCCn1c(=O)c2ccccc2n(Cc2cccc(F)c2)c1=O)NCc1ccc2c(c1)OCO2	inactive: 14.1%	–
Cc1cccc(Nc2c(-c3ccsc3)nc3nc(C)cc(C)n23)c1	inactive: -7.22%	–
O=C(CSc1nccn1-c1cccc(Cl)c1)Nc1cccc2ccccc12	inactive: -7.78%	–
CCSc1ncc(Cl)c(C(=O)Nc2c(C(=O)Nc3ccccc3)oc3ccccc23)n1	–	inactive
CCOc1ccc(CCNC(=O)CCCc2nnc3n(CC)c(=O)c4sccc4n23)cc1	inactive: 0.741%	–
Cc1ccc2onc(CNC(=O)NCc3ccc(Cl)cc3)c2c1	inactive: -1.01%	–
COc1ccc(C)cc1-n1cnc2cc(C(=O)NC3CCCCCC3)ccc21	inactive: -16.2%	–
O=C1COc2cc(S(=O)(=O)CCC(=O)NC3CCCCC3)c(Cl)cc2N1	–	inactive
Cn1c(SCC(=O)Nc2nc3ccccc3s2)ncc(C(=O)Nc2ccccc2)c1=O	inactive: -11.6%	–
COc1cccc(CNC(=O)CN2C(=O)N(c3ccc(C)cc3C)S(=O)(=O)c3ccccc32)c1OC	inactive: 50.5%	–
CCc1nn(CC(=O)NCCCN(CC)CC)c(=O)c2cc3occc3n12	–	inactive
CCc1nc(-c2cc(S(=O)(=O)N3CCN(c4ccccc4)CC3)ccc2OC)no1	inactive: 10.3%	–
CNC(=O)[C@H](Cc1ccccc1)NC(=O)[C@H](CC(C)C)[C@H](CSc1cccs1)C(=O)NO	inactive: -10.5%	–
COc1ccc(-c2nc3cc(C)ccn3c2NC(=O)c2cccc(F)c2)cc1	–	inactive
Cn1c(=O)c2c(-c3ccc(Br)cc3)n(Cc3ccc(F)cc3)cc2n(C)c1=O	inactive: -9.02%	–
O=C(O)c1c(-c2ccccc2)oc2ccc(OCc3c(F)cccc3Cl)cc12	inactive: -13.1%	–
O=C(NCCn1cc(SCc2ccc(Br)cc2)c2ccccc21)c1cccs1	–	inactive

Compound	activity change, negative = inhibition	outcome
Cc1ccc(/C=C(\C#N)C(=O)Nc2cccc(Cl)c2)o1	inactive: -4.28%	–
COc1ccc(CCNC(=O)C2CCN(Cc3nc(-c4ccc(OC)c(OC)c4)oc3C)CC2)cc1OC	inactive: 1.25%	–
CCN(CC)C(=O)Cn1c(=O)n(CC2CCC(C(=O)NC)CC2)c(=O)c2sccc21 (stereo not given)	inactive: -0.325%	–
CCCC(=O)N1CCc2cc(OC)c(OC)cc2C1COc1ccc(C(=O)OC)cc1 (stereo not given)	–	inactive
CCC1Oc2ccccc2N(CC(=O)NCc2cc(OC)ccc2OC)C1=O (stereo not given)	inactive: -1.53%	–
Cc1cc(C)cc(OCCCn2c(-c3ccc(Cl)cc3)nc3ccccc3c2=O)c1	–	inactive
CCOc1ccccc1-c1nc(Cn2c(=O)cc(C)c3c(C)nn(-c4ccccc4)c32)c(C)o1	–	inactive
O=C(CSc1nc(-c2ccccc2F)nc2cc(=O)[nH]n12)Nc1cccc(C(F)(F)F)c1	inactive: -2.29%	–
Cc1ccc(OCC(=O)Nc2ccc(S(=O)(=O)Nc3cc(C)on3)cc2)c(Br)c1	inactive: -3.12%	–
COc1ccc(C(CC(=O)NCc2ccc(Cl)cc2)N2Cc3ccccc3C2=O)cc1OC (stereo not given)	inactive: -10.6%	–
COc1cc(C)ccc1OCCSc1nnc(-c2ccc(C)cc2)o1	inactive: -1.91%	–
Cc1ccc(C(=O)c2oc3ccccc3c2NC(=O)Cc2coc3c(C)c(C)ccc23)cc1	inactive: 3.72%	–
COc1ccc(-c2nc3ccccc3n2Cc2ccc(Cl)cc2)cc1	inactive: 1.25%	–
O=C(OCc1cc(=O)n2c3c(sc2n1)CCCC3)c1cccc(NC(=O)c2ccccc2F)c1	inactive: -1.69%	–
CCOc1ccc(NC(=O)CSC2=Nc3ccccc3C3=NC(CC(=O)NCc4ccc5c(c4)OCO5)C(=O)N23)cc1 (stereo not given)	inactive: -6.39%	–
Cc1ccc(S(=O)(=O)c2c(Nc3cccc(Cl)c3)sc(C(=O)c3ccc4c(c3)OCO4)c2N)cc1	–	inactive
O=C(NCc1ccccc1Cl)c1ccc(NC(=O)N2CCCCc3ccccc32)cc1	inactive: -0.432%	–
Cc1cc(Br)ccc1NC(=O)C1(S(=O)(=O)c2ccc(Cl)cc2)CC1	inactive: 1.14%	–
COc1ccccc1C(=O)Nc1ccc(-c2nc3ccccc3s2)c(C)c1	inactive: -14.3%	–
CC1CCCCN1CC(=O)N1CCCc2c1c(=O)oc1ccc(OCc3ccccc3)cc21 (stereo not given)	inactive: 1.88%	–

Compound	activity change, negative = inhibition	outcome
O=C(NCCS(=O)(=O)N1CCN(c2ccccc2)CC1)C1CC(=O)N(c2ccccc2)C1 (stereo not given)	inactive: -0.256%	–
Cc1cccc(NC(=O)CN(C)S(=O)(=O)c2ccc3c(c2)c(=O)n(C)c(=O)n3C)c1	inactive: 7.08%	–
Cc1ccc(-c2cc(C(=O)N(Cc3ccccc3)Cc3ccco3)no2)cc1F	inactive: 18.3%	–
COc1ccccc1C(=O)Nc1nnc(S(=O)(=O)N2CCCCCC2)s1	inactive: -13.5%	–
CCOc1ccccc1C(=O)Nc1ccc(S(=O)(=O)N2CCCCC2c2cccnc2)cc1 (stereo not given)	inactive: -8.48%	–
COc1ccc(-c2nc(CNS(=O)(=O)c3ccc(C)cc3)cs2)cc1	–	inactive
COc1cccc(NC(=O)CSC2=Nc3ccccc3C3=NC(CCC(=O)NCc4ccco4)C(=O)N23)c1 (stereo not given)	–	inactive
Cc1ccc(-c2ccc(=O)n(CC(=O)Nc3ccc(F)c(Cl)c3)n2)cc1C	inactive: -0.65%	–
CCOc1ccc(CCNc2nc3c(-c4ccc(C)cc4)nnn3c3ccccc23)cc1OCC	–	inactive
CCCn1c(=O)c2sccc2n2c(CCCC(=O)Nc3ccc(C)c(F)c3)nnc12	–	inactive
COc1ccc(C)c2sc(N(Cc3cccnc3)C(=O)CCc3ccccc3)nc12	inactive: 4.96%	–
CC(=O)Nc1ccc(S(=O)(=O)NC2(C(F)(F)F)NC(=O)N(c3ccc(Cl)cc3)C2=O)cc1 (stereo not given)	inactive: 4.44%	–
COC(=O)c1c(C)sc(-c2c(-c3cccc(OC)c3)[nH]c3c2c(=O)[nH]c(=O)n3C)c1O	–	inactive
COc1ccc(C(=O)N2CCc3cc(OC)c(OC)cc3C2COc2ccccc2OC)cc1 (stereo not given)	inactive: 46.2%	–
CCCCN(CC)C(=O)Nc1ccc2c(c1)N(C)C(=O)c1ccccc1S2	inactive: -8.27%	–
Cc1ccc(C(=O)COC(=O)c2cc(-c3ccc(Cl)cc3)nc3ccccc23)cc1	inactive: 7.23%	–
COc1ccc(-c2noc(CN3CCN(c4ccccc4OC)CC3)n2)cc1OC	–	inactive
COc1cccc(N2CC(NC(=O)COc3ccc4ccccc4c3)CC2=O)c1 (stereo not given)	–	inactive
CCc1nnc(SCC(=O)Nc2cc(Cl)c(OC)cc2OC)c2cc3oc(C)cc3n12	inactive: 7.81%	–
Cn1cc(S(=O)(=O)c2ccccc2)c(=O)c2cc(F)c(N3CCCCC3)cc21	inactive: -4.34%	–
